# According to PubChem BioAssay (NCATS):
# Inconclusive results, whose numbers are uncertain, are shown with a selection of clear calls. For part of these data: Potencies of inconclusive entries are left out as doubtful fits. The source made the active and inactive calls. Calls come from the whole dose curve; as a rule, active = well fitted curve in the direction sought with a large enough effect; inconclusive = small, poorly fitted or top-dose-only effect, or another doubt; inactive = no such curve, though single readings can be large; an effect the other way counts as inactive or inconclusive.
# What was measured:
# [1] = qHTS of pediatric cancer cell lines to identify multiple opportunities for drug repurposing: Primary screen for Saos-2 cells (AID 1347097); note: potency is the fitted concentration of half-maximal effect; nearly all actives have a fitted effect of over 40% in size
# Summary of the method: (§1)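 CRCs from 8- or 11-point titrations (lowest final 0.59 nM NPC, 0.78 nM MIPE). Cell viability: CellTiter-Glo after 48 h incubation, 15 min room-temperature development, luminescence imaging.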
# [2] = tested on: Zika virus NS2B-NS3 protease; assay: Primary screen GU AMC qHTS for Zika virus inhibitors (AID 1347154);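 note: 0% = no-inhibitor control and -100% = no-enzyme control; nearly all actives have a fitted effect of over 70% in size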
# Summary of the method: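 Unlinked Zika NS2B hydrophilic domain/NS3 protease domain noncovalent complex (25 nM final) in 10 mM Tris-HCl pH 8.0, 0.01% Tween 20, with AMC peptide substrate. Fluorescence (ex 340, em 450 nm) change over 15 min, room temperature; percent inhibition fitted to 4-parameter Hill equation.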
# [3] = Primary qHTS for inhibitors of nuclear receptor binding SET domain protein 2 (NSD2) in an RCH-ACV wild type WT cells (2C) (AID 1645877); conditions: activity change, negative = cell killing: at 44.9 µM (top of the series) unless noted; note: nearly all actives have a fitted effect of over 70% in size; note: potency is the fitted concentration of half-maximal effect; for activity change, negative = cell killing: % is set by controls: 0 for no effect and ±100 for the full control effect
# HEK293 = assay: Cytotoxic Profiling of Annotated Libraries Using Quantitative High-Throughput Screening (AID 1296008); conditions: Five cell lines viability, CellTiter-Glo ATP luminescence, 48-72 h; max response: active compounds read low; note: % is set by controls: 0 for no effect and ±100 for the full control effect; nearly all actives have a fitted effect of over 60% in size
# Summary of the method: (§2)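 Compounds were pin-transferred onto cells and incubated 48 or 72 hr at 37 degree Celsius, 95% humidity. CellTiter-Glo was added, plates sat 10 min at room temperature, then ATP-coupled luminescence was imaged as the viability read-out.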
# MKL-1 = assay: qHTS assay to identify novel small-molecules to repurpose for Merkel cell carcinoma treatment (AID 1296009); conditions: MCC and control cell lines, CellTiter-Glo viability, 72 h; activity change, negative = cytotoxicity: at 46 µM (top of the series); note: % is set by controls: 0 for no effect and ±100 for the full control effect; nearly all actives have a fitted effect of over 60% in size
# Summary of the method: (§3)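 Luminescence from CellTiter-Glo, read 10 min after addition at room temperature, reported viability following a 72 hr, 37 degree celsius treatment with NPC or MIPE compounds in titration; values normalized to plate controls.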
# MKL-2 = assay: as above; conditions: MCC and control cell lines, CellTiter-Glo viability, 72 h; activity change, negative = cytotoxicity: at 46 µM (top of the series)
# Summary of the method: as §3
# [4] = qHTS of pediatric cancer cell lines to identify multiple opportunities for drug repurposing: Primary screen for SK-N-MC cells (AID 1347093); conditions: SK-N-MC viability, CellTiter-Glo luminescence, 48 h; activity change, negative = cytotoxic: at 46 µM (top of the series);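 note: plate controls were DMSO neutral control for no effect and bortezomib for full effect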
# Summary of the method: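 Metabolically active cells were quantified by ATP-dependent luminescence (CellTiter-Glo, 15 min at room temperature) following 48 h treatment. Cells had been plated at 500-1,000 per well and settled for 5 h beforehand.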
# [5] = qHTS of pediatric cancer cell lines to identify multiple opportunities for drug repurposing: Primary screen for BT-37 cells (AID 1347094);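 note: plate controls were DMSO for no effect and bortezomib for full effect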
# Summary of the method: as §1
# [6] = qHTS of pediatric cancer cell lines to identify multiple opportunities for drug repurposing: Primary screen for BT-12 cells (AID 1347101);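 note: plate controls were DMSO for no effect and bortezomib positive control for full effect; nearly all actives have a fitted effect of over 25% in size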
# Summary of the method: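 Cells (500-1,000/well) rested 5 h, then received compounds for 48 h; metabolically active cells were measured by CellTiter-Glo luminescence. Final concentrations spanned up to 46 µM (MIPE, 11-point) or 0.59 nM-46 µM (NPC, 8-point) in primary screens, 11-point in follow-ups.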
# [7] = qHTS of pediatric cancer cell lines to identify multiple opportunities for drug repurposing: Primary screen for Rh41 cells (AID 1347108);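 note: luminescence drop marks cytotoxic hits; nearly all actives have a fitted effect of over 70% in size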
# Summary of the method: as §1
# [8] = Primary qHTS for small molecule stabilizers of the endoplasmic reticulum resident proteome: Secreted ER Calcium Modulated Protein (SERCaMP) assay (AID 1508630); conditions: SH-SY5Y GLuc-SERCaMP (Gaussia luciferase released on ER calcium loss) secretion, thapsigargin, luminescence; activity change, negative = inhibition: at 38.4 µM (top of the series) unless noted; note: potency is the fitted concentration of half-maximal effect
# Summary of the method: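 The SH-SY5Y reporter protocol was run at 3 concentrations up to 38.3 uM (primary) or 11 concentrations (follow-up): 16 h compound, 100 nM thapsigargin for 4 h, then extracellular luciferase luminescence.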
# MCC-13 = assay: qHTS assay to identify novel small-molecules to repurpose for Merkel cell carcinoma treatment (AID 1296009); conditions: MCC and control cell lines, CellTiter-Glo viability, 72 h; series mostly up to 46 µM; note: % is set by controls: 0 for no effect and ±100 for the full control effect; nearly all actives have a fitted effect of over 60% in size
# Summary of the method: as §3
# [9] = Primary qHTS for inhibitors of nuclear receptor binding SET domain protein 2 (NSD2) in an isogenic RCH-ACV NSD2 p.E1099K mutant (9B) (AID 1645876); note: nearly all actives have a fitted effect of over 70% in size; note: potency is the fitted concentration of half-maximal effect
# [10] = Primary fluorescence-based thiol-reactive (MSTI) qHTS assay for identification of artifact compounds. (AID 1845221);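 note: potency is the fitted concentration of half-maximal effect; thiol-reactive compounds lower the probe fluorescence signal; nearly all actives have a fitted effect of over 65% in size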
# Summary of the method: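 In PBS pH 7.4 with 2% DMSO, each compound met 4 uM MSTI for one hour at ambient temperature, shielded from light, before fluorescence detection.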
# CRL-7250 = normal cell line; assay: Cytotoxic Profiling of Annotated Libraries Using Quantitative High-Throughput Screening (AID 1296008); conditions: Five cell lines viability, CellTiter-Glo ATP luminescence, 48-72 h; max response: active compounds read low; note: % is set by controls: 0 for no effect and ±100 for the full control effect; nearly all actives have a fitted effect of over 60% in size
# Summary of the method: as §2
# [11] = Primary redox qHTS assay for identification of artifact compounds. (AID 1845223); conditions: Amplex Red/HRP redox cycling with DTT, fluorescence; redox activity (% of DA3003): at 53.8 µM (top of the series); note: potency is the fitted concentration of half-maximal effect
# Summary of the method: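 Redox-cycling detection via DTT (250 uM final) oxidation coupled to Amplex Red (25 uM)/HRP (250 mU/mL) in HBSS. 15 min preincubation plus 30 min after DTT, room temperature. Ex/Em 525/598 nm; 4-parameter Hill fit against DMSO and 10 uM DA3003.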
# [12] = target: Calcium and integrin-binding protein 1 (Homo sapiens) (UniProt Q99828); assay: Primary qHTS for Identification of Calcium Integrin Binding Protein 1 (CIB1) Competitor (AID 1508620);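 note: GST tagged CIB1 binding a fluorescein labelled alphaIIb integrin peptide tracer; top concentration of the series differs between compounds; % is set by controls: 0 for no effect and ±100 for the full control effect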
# Chain of UniProt Q99828 (Q99828 whole entry, looked up): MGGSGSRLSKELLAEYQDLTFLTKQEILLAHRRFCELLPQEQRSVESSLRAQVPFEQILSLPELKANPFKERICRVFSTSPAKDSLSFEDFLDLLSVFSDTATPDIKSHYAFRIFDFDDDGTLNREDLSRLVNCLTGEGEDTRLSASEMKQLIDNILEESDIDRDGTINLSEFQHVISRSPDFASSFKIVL
# Summary of the method: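 Fluorescence polarization competition: CIB1-GST (1 uM final) preincubated with compound 15 min at room temperature, then FITC-labeled alphaIIb peptide (100 nM final) added for another 15 min. Polarization read at Ex 480/Em 540.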
# Tags give direction and shape of the fitted curve.
structure (smiles),measurement,setting,value
C[C@@H]1CCC[C@H](C)N1CCCC(O)(c1ccccc1)c1ccccn1 (some centres undefined),Potency,[1],"inconclusive [cytotoxic, single point]"
same,Potency,[2],inactive
same,Potency,[3],inactive
same,max response,HEK293,inactive: -3.44%
same,Potency,MKL-1,inactive
same,Potency,MKL-2,inactive
Cc1oc(=O)oc1COC(=O)[C@@H]1N2C(=O)[C@@H](NC(=O)[C@H](N)c3ccccc3)[C@H]2SC1(C)C,Potency,[4],inactive
same,Potency,[5],inactive
same,Potency,[6],inactive
same,Potency,[7],inactive
same,Potency,[8],"inconclusive [inhibitor, partial curve, poor fit]"
same,Potency,[3],inactive
same,max response,HEK293,inactive: -0.753%
same,Potency,MCC-13,inactive
C[C@]1(OC(=O)/C=C\c2ccc(O)cc2)C[C@@H](O)[C@]2(O)C=CO[C@@H](O[C@@H]3O[C@H](CO)[C@@H](O)[C@H](O)[C@H]3O)C12 (some centres undefined),Potency,[9],inactive
same,Potency,[10],"inconclusive [inhibitor, single point]"
same,max response,CRL-7250,inactive: -13.5%
CC1=C(C)C(=O)OC(C(C)C2C(O)CC3C4C5OC5C5(O)CC(OC6OC(CO)C(OC7OC(C)C(O)C(O)C7O)C(O)C6O)CC(O)C5(C)C4CCC32C)C1 (centres undefined),Potency,[11],"inconclusive [activator, partial curve, poor fit]"
same,max response,CRL-7250,inactive: -10%
C[C@@H]1CN(CC(=O)N2CC(C)(C)c3ncc(Cc4ccc(F)cc4)cc32)[C@@H](CN2CCOC[C@H]2C)CN1,Potency,[12],inactive
same,Potency,[9],"inconclusive [inhibitor, partial curve]"
same,Potency,[3],"inconclusive [inhibitor, partial curve]"
same,max response,CRL-7250,inactive: -4.83%
Cc1ccc(NC(=O)C(=O)NC2CC(C)(C)NC(C)(C)C2)cc1,max response,HEK293,inactive: 1.35%
